What is called % Inhibition is the drop in the measured response relative to a control, in per cent.

Out of some 150,000 compounds screened, about 540 (0.36%) showed an effect of 50% or more. The list shows a part of the results.

For the assay, the system named is Plasmodium falciparum. Description: Primary screen in NF54 nanoGlo assay, in single point, at 2uM, 72h; a lower Z score goes with more inhibition. The following applies: timepoint 72 hour. The class given is functional, Erythrocyte.
In the case of `Cn1nc(CNC(=O)c2cccc(Cl)c2)cc1-c1ccco1`, the “% Inhibition” value is listed as -18% and the Z score amounted to 2.03.
Taken in the same sequence, the figures for `Cc1ccc2c(c1)OC=CC(C(=O)NC1CCCC1)=C2` were 0% and 0.04.
As for `CN(Cc1nc(-c2cccs2)no1)C(=O)[C@H]1CCCN(S(C)(=O)=O)C1`, the “% Inhibition” value is recorded as -12% and the Z score is 1.64.
As to `NC(=O)[C@@H]1C[C@@H](F)CN1C(=O)c1cnc(OCC2CC2)c(Cl)c1`, the “% Inhibition” value was -12% and the Z score turned out to be 1.71.
In the same order, the values of `COc1ccccc1C1(CNC(=O)c2coc(Br)c2)CCOCC1` are 1% and -0.16.
Taken in the same sequence, the figures for `O=c1[nH]c(NS(=O)(=O)c2ccccc2)nc2nc(-c3ccccc3)oc12` were -6% and 0.75.
Taken in the same sequence, the figures for `O=C(c1cc(O)ccn1)N1CC(Cc2ccccc2)C1` were -7% and 1.31.
Take `CC(C)(C)c1ncc2c(n1)CCN([C@@H](C(=O)O)c1ccsc1)C2`: the “% Inhibition” value was -4% and the Z score is listed as 0.48.
In the same order, the values of `CC1=C(C(=O)N[C@@H](C)CC(=O)NC(C)C)CCCO1` are -2% and 0.31.
In the case of `Cc1c(CN(C)C(=O)C2CCOCC2)[nH]c2ccccc12`, the “% Inhibition” value is -14% and the Z score turned out to be 1.92.
In the same order, the values of `CC(C)OCCN1CCN(C(=O)Nc2ccc(C(F)(F)F)nc2)CC1` are -23% and 3.06.
Taken in the same sequence, the figures for `O=C(Cc1ccc(-c2ccccc2)cc1)NC(C1CC1)C1CC1` were 0% and 0.04.
Taken in the same sequence, the figures for `COc1ccc(S(=O)(=O)N2CCC(n3nnc4ccccc4c3=O)CC2)cc1` were -18% and 2.39.
Regarding `COC[C@H]1CCCN1[C@@H]1[C@H](O)[C@H](CO)O[C@@H]1CNS(=O)(=O)c1ccc(OC)cc1`, the “% Inhibition” value is given as -15% and the Z score amounted to 1.92.
On to `CCO[C@@H](CNC(=O)c1c[nH]nc1-c1ccsc1)c1ccccc1`, for which the “% Inhibition” value is -8% and the Z score worked out at 1.05.
Taken in the same sequence, the figures for `CCCNc1ncc(CN2CCC(OCc3ccccn3)CC2)cn1` were -14% and 2.42.
Taken in the same sequence, the figures for `O=C1CN(C(=O)c2cccc(NC(=O)CCn3ccc4ccc(Cl)cc43)c2)CCN1` were -18% and 2.28.
As to `C[C@@H](C(=O)N(C)c1ccnn1C)c1ccc(Cl)s1`, the “% Inhibition” value was -15% and the Z score is listed as 2.18.
In the same order, the values of `CC[C@@H](CO)NC(=O)C(=O)Nc1ccc(OC)cc1OC` are -15% and 2.39.
In the same order, the values of `O=C(Cc1ccc(Cl)cc1)N1CCC(c2nc3ccccc3o2)CC1` are -17% and 1.53.
As to `FC(F)COC1CN(Cc2cnc3ccc(Br)cn23)C1`, the “% Inhibition” value is -16% and the Z score is on record as 2.3.
In the same order, the values of `CCNC(=O)[C@@H]1C[C@@H](N)CN1C(=O)c1scc2c1CCCC2` are -2% and 0.32.
For `Cc1sc(C=Cc2cncc(Br)c2)nc1C(=O)O`, the “% Inhibition” value is given as -15% and the Z score is listed as 2.34.
In the same order, the values of `CC1CCC(C(N)=O)CN1CC(=O)N1CCC(Cc2ccccc2)CC1` (stereo not drawn) are -1% and 0.18.
Taken in the same sequence, the figures for `CO[C@@H](C)C(=O)Nc1cnccc1CO` were 6% and -0.63.
Taken in the same sequence, the figures for `Cc1ccc(NC(=O)CN(CC2CCCO2)CC2CCCO2)c(Cl)c1` (stereo not drawn) were -13% and 2.35.
Take `CC(F)(F)c1ccccc1NC(=O)N1CCC2CCC(C1)S2(=O)=O` (stereo not drawn): the “% Inhibition” value is -3% and the Z score worked out at 0.56.
In the same order, the values of `Cc1cccc(CN2C(=O)c3ccc(-c4ccccc4)n3C[C@@]2(C)C(=O)NC2CCCC2)c1` are 6% and -1.15.
As for `C[C@@](O)(C(=O)NCc1c(F)cccc1OC(F)F)C1CCOCC1`, the “% Inhibition” value was -3% and the Z score is 0.37.
Taken in the same sequence, the figures for `COc1cccn(CC(=O)N(C)Cc2cc(C)nn2C)c1=O` were 1% and -0.14.
For the compound `Cn1ncn(CC(=O)c2cccc(Cl)c2Cl)c1=O`, the “% Inhibition” value turned out to be 32% and the Z score is given as -4.63.
In the same order, the values of `CC(=O)N[C@@H]1CN(Cc2nccn2Cc2ccccc2)C[C@H]1c1nccn1C` are 30% and -1.12.
Taken in the same sequence, the figures for `CN(C)CCNC(=O)NCCc1ccc(F)c(F)c1` were 11% and -2.15.
Taken in the same sequence, the figures for `Cc1ccc(-c2nc(=O)n(CC(=O)N3CCOCC3)c3sc(C)nc23)cc1` were -22% and 2.53.
Take `CCOc1ncccc1NC(=O)N(C)C1CC1`: the “% Inhibition” value is on record as -5% and the Z score was found to be 0.68.
Taken in the same sequence, the figures for `CCNC(=O)N(C)c1cccc(NC(=O)N(C)CC2=CCCOC2)c1` were 2% and -0.2.
Taken in the same sequence, the figures for `COc1cccc(CCNc2nccn3nnnc23)n1` were 15% and -1.74.
Taken in the same sequence, the figures for `O=C(CCc1ccccc1)N[C@@H](c1ccccc1)c1ccc2c3c(cccc13)CC2` were 38% and -4.27.
As for `Cc1ccccc1-c1cc(C(=O)O)cc(S(=O)(=O)N2CCOCC2)c1`, the “% Inhibition” value came to 3% and the Z score is recorded as -0.57.
Consider `CN(C)CCCCN(C)S(=O)(=O)CC1CCCCC1`, for which the “% Inhibition” value turned out to be 6% and the Z score is -0.77.
Consider `CC(C)[C@H](N)C(=O)NC[C@H]1CC[C@H](C(=O)N[C@H](C(=O)O)C(C)C)CC1`, for which the “% Inhibition” value is -14% and the Z score turned out to be 1.57.
In the same order, the values of `COc1cnccc1C(C)NC(=O)NC1C2CCOC2C12CCC2` (stereo not drawn) are -14% and 2.25.
In the same order, the values of `CCc1nc(-c2cc(S(=O)(=O)Nc3cc(C)ccc3F)c(C)s2)cs1` are -3% and 0.36.
Taken in the same sequence, the figures for `N#Cc1cccnc1NC[C@@H](c1ccccc1Cl)N1CCOCC1` were -12% and 1.04.
For `Cc1ccc2snc(C(=O)N[C@H](c3cnn(C)c3)C(C)C)c2c1`, the “% Inhibition” value worked out at 20% and the Z score is recorded as -3.7.
As for `Cc1nc(-c2nnc[nH]2)sc1C(=O)NC1CC1c1ccccc1Cl` (stereo not drawn), the “% Inhibition” value is -2% and the Z score was found to be 0.24.
Taken in the same sequence, the figures for `CC(C)(C)C(=O)N1CCC(Cn2nnc(-c3ccco3)n2)CC1` were 0% and 0.02.
Taken in the same sequence, the figures for `CCCN(C)C(=O)[C@H](C1CCCC1)N1CCN(C(=O)CC(C)(C)C)CC1` were -5% and 1.08.
In the same order, the values of `CCC(NC(=O)C(c1ccncc1)C1CCCC1)C(O)C(C)C` (stereo not drawn) are 17% and -1.97.
As to `Cc1cc(C)nc(N2CCN(c3cc(=O)[nH]c(=O)[nH]3)CC2)n1`, the “% Inhibition” value is recorded as -1% and the Z score came out at 0.1.
Take `O=C(CN1CCN(CC2CC2)[C@@H](CCO)C1)NC1CCCCCCC1`: the “% Inhibition” value was -10% and the Z score was 1.23.
For `Cc1ccc(CN(CCC#N)CCC#N)cc1C`, the “% Inhibition” value was 0% and the Z score is on record as -0.04.
In the same order, the values of `COc1cc(-c2c(-c3ccccc3)ncn2[C@@H](C)c2cnn(C)c2)ccc1F` are -4% and 0.8.
In the same order, the values of `c1cn2cnnc2c(N2CCN(Cc3ccc4c(c3)CCO4)CC2)n1` are -5% and 0.67.

For the origin of these results see ChEMBL document CHEMBL4888484, “Replenishing the malaria drug discovery pipeline: Screening and hit evaluation of the MMV Hit Generation Library 1 (HGL1) against asexual blood stage Plasmodium falciparum ,using a nano luciferase reporter read-out” (2022).
